Sequences with one replicate were seen in a single cluster, so their values are uncertain.
Each sequence was assayed on ATP (assay: switch fluorescence ratio, 500 uM ATP over buffer (Cy3 cluster intensity, sum of 5 cycles each) (fold (ratio)); higher = stronger signal-on switching upon ATP binding; sequences stand for … in TCGTCGGCAGCGTCAGATGTGTATAAGAGACAGTTTTTTTTTTTTTTTTTTTTTTTTT…TC). Settings: aptamer strand: ATP DNA aptamer (quencher-CACCTGGGGGAGTATTGCGGAGGAAGG + anchor), 100 nM annealed; ATP concentration: 500 uM; one replicate.
Method in brief: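 Cy3-labelled switching-strand clusters on a modified Illumina MiSeq flow-cell were annealed to 100 nM quencher-labelled ATP aptamer and imaged first in selection buffer, then after 15 min with 500 uM ATP at 22 °C. NaOH stripping and re-annealing separated each of five buffer/ATP cycles, and clusters outside 100-1000 RFU were excluded. The fluorescence ratio sums target-cycle Cy3 intensity over buffer-cycle Cy3 intensity per cluster and averages it per switch-domain sequence.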
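Further: ATP exposure 15 min at 22 °C before imaging.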

Sequence | switch fluorescence ratio
ATCATTTGGT | 0.983
ATCCAATCAC | 1.09
ATCCAGATA | 1.03
ATCCAGTCCT | 1.04
ATCCATATAT | 1.07
ATCCATCAC | 0.992
ATCCATTGAT | 0.986
ATCCCAACCT | 1.66
ATCCCGGATC | 0.991
ATCCCGGTTG | 1.09
ATCCGAAATG | 2.33
ATCCGCCAGG | 2.39
ATCCGCGTCA | 1.46
ATCCGGCGTT | 1.02
ATCCGGGCTA | 0.986
ATCCGGTACA | 0.978
ATCCGTCCCT | 1.03
ATCCGTTTCA | 0.995
ATCCTATAAG | 1.02
ATCCTATTCA | 1
ATCCTCGGG | 1.02
ATCCTCGTTC | 0.986
ATCCTGACAG | 1.04
ATCCTGGACT | 1
ATCCTGGGGA | 0.999

Sequence | switch fluorescence ratio
ATCCTGTTGT | 0.977
ATCCTTACAA | 1.04
ATCCTTAGTC | 0.987
ATCCTTCGG | 1.03
ATCCTTCTAG | 1.03
ATCCTTGAGC | 1.01
ATCGAAGGG | 1.01
ATCGAATTCT | 0.997
ATCGAGAAGC | 1.07
ATCGAGGGCA | 1.01
ATCGAGTCTC | 1.01
ATCGATAGCG | 0.95
ATCGCAACGG | 1.16
ATCGCAAGTC | 3.29
ATCGCTGACG | 0.971
ATCGGAAGGC | 1.18
ATCGGACCGC | 1.07
ATCGGACTTT | 1.04
ATCGGATAGC | 1.04
ATCGGCAGTG | 1.01
ATCGGCATAG | 1.13
ATCGGCATCT | 1.03
ATCGGGTTCT | 0.96
ATCGGGTTGT | 0.988
ATCGGTCAAA | 0.973

Sequence | switch fluorescence ratio
ATCGGTCATT | 0.97
ATCGGTTCAT | 1.03
ATCGGTTTCG | 0.946
ATCGTCGTAT | 0.975
ATCGTGTATT | 1.01
ATCGTTAGCG | 0.983
ATCGTTCTGG | 0.975
ATCGTTGGGC | 1.04
ATCTACATTT | 0.989
ATCTACGAAG | 0.994
ATCTACGTCT | 0.977
ATCTAGAAGG | 0.943
ATCTAGGATT | 1
ATCTAGTTGT | 0.991
ATCTATACCT | 1.2
ATCTATCATC | 1.02
ATCTCCCGCT | 1.39
ATCTCGAGGT | 0.962
ATCTCGCGTT | 0.961
ATCTCGTCGA | 1.01
ATCTCGTTGG | 1.02
ATCTCGTTTT | 0.987
ATCTCTTCGG | 1.03
ATCTGAAGCC | 1.27
ATCTGAGCGA | 1.02

Sequence | switch fluorescence ratio
ATCTGCAAGT | 1.19
ATCTGCACTA | 1.31
ATCTGCCTA | 0.996
ATCTGGGTCG | 1.02
ATCTGTGCGG | 1.01
ATCTTACGCC | 1.03
ATCTTAGACT | 0.974
ATCTTCACTT | 1.02
ATCTTCCACA | 1.1
ATCTTCTGTG | 1.01
ATCTTCTTAT | 1.04
ATCTTGATG | 0.992
ATCTTGCGAC | 1.16
ATCTTGTCTC | 1.01
ATCTTTGATA | 1.06
ATCTTTTCA | 0.946
ATGAACGAGT | 1.01
ATGAACGCCC | 1.18
ATGAACTACC | 1.09
ATGAACTCTC | 0.982
ATGAAGAACG | 1.06
ATGAAGTAGC | 0.97
ATGAAGTTTA | 0.994
ATGAATCCGG | 1.07
ATGACCAAAT | 1.02
